# Measured values published in PubChem BioAssay AID485313 (National Center for Advancing Translational Sciences (NCATS), 2010).
# In all, about 320,000 compounds went through this assay and about 7,600 (2.4%) were called active. This list was built around the results that the source calls inconclusive (neither active nor inactive); the mix of calls is not that of the screen. Calls follow the shape of the dose curve; as a rule, active = well fitted activation curve with a large enough effect; inconclusive = small, poorly fitted or top-dose-only effect; inactive = no such curve, though single readings can be large or run the other way. Potencies of inconclusive entries are left out as doubtful fits.
# Experiment: qHTS Assay for NPC1 Promoter Activators; also: nearly all actives have a fitted effect of over 60% in size; as to activation: % of control where 0% means no effect
# Settings: Huh7 NPC1 promoter luciferase reporter, 24 h; series mostly up to 9.22 µM; activation: at the top concentration
# Description: NIH Chemical Genomics Center [NCGC] NIH Molecular Libraries Probe Production centers Network [MLPCN] MLPCN Grant: MH089375-01A1 Assay Submitter (PI): Yiannis A. Ioannou NCGC Assay Overview: Niemann Pick Type C (NPC) is a rare neurodegenerative lipidosis that is characterized by lipid storage in the endosomal/lysosomal system. Treatment modalities for this devastating disease are currently non-existent due to the severe obstacles associated with accessing the central nervous system with proteins or genes. The majority of mutations causing NPC disease are missense mutations that are distributed throughout the length of the NPC1 protein, with the most prevalent being the I1061T allele. Although NPC1 mutant proteins may be functional, they are typically trapped in the ER due to misfolding. […] We have developed and optimized a cell based luciferase reporter assay in 1536 well format for the identification of up-regulators of the mutant NPC1 promoter.
# The NPC1 promoter is cloned in front of the luciferase reporter gene, therefore NPC promoter activation results in luciferase expression. Frozen stock of the NPC1 promoter transfected Huh7 cells were obtained from the laboratory of Dr. Yiannis Ioannou (The Mount Sinai School of Medicine, New York, NY). Cells were propagated and maintained at NCGC in medium containing RPMI-1640 supplemented with 10% FBS, 2mM L-glutamine, and 50ug/ml penicillin/streptomycin. Cells were harvested in and plated for assays in OP-MEM I reduced-serum medium supplemented with 10% FBS. The Amplite luciferase reporter gene assay kit was purchased from ABD Bioquest and prepared/stored according to manufacturers recommendations. qHTS Assay Setup: 1.#Dispensed 5ul of Huh7 cells stably expressing NPC1-luciferase at a density of 1500 cells per well 1536-well plates. 2.#Incubate cells at 37C, 5% CO2, and 95% humidity for 2 hours. 3.#Transferred 23nl per well of compound in DMSO solution. 4.#Incubated at 37C, 5% CO2, and 95% humidity for 24 hours. 5.#Dispensed 3ul per well of Amplite reagent(ABD Bioquest) per well. 6.#Incubate at ambient for 10 minutes. 7.#Read using the luminescence protocol on the ViewLux plate reader (Perkin Elmer).
# Potency is read from the fitted curve at half-maximal effect; tags tell the direction and shape of the fitted curve.
SMILES,Potency,activation
Cc1ccc(-c2cc(-c3ccccc3C)[nH]n2)c(O)c1,active: 3.98 µM,
Cc1ccc(C(=O)NC2CCN(CC(=O)Nc3c(C)cc(C)cc3C)CC2)cc1,"inconclusive [activator, full curve]",
Cc1cccc(C(=O)N/N=C/c2ccccn2)c1,"inconclusive [activator, single point]",
Cc1cc(C(=O)CSc2nc3ccccc3c(=O)[nH]2)c(C)n1C,"inconclusive [activator, partial curve]",
CC1=CC(=C2C(=O)c3ccccc3C2=O)C=C(C)O1,"inconclusive [activator, single point]",
Fc1ccc(N/N=C/c2ccc(N3CCOCC3)cc2)c(F)c1,active: 2.51 µM,
CCOc1ccc2nc(-c3cc(NC(C)=O)ccc3O)sc2c1,"inconclusive [activator, partial curve]",
CC(Sc1ncnc2c1cnn2-c1ccccc1)C(=O)Nc1ccc(N2CCOCC2)cc1 (configuration not stated),"inconclusive [activator, single point]",
CN1CCN(/N=C/c2ccc(Br)cc2)CC1,"inconclusive [activator, single point]",
Cc1csc(NC(=O)c2ccc(Cl)cc2[N+](=O)[O-])n1,"inconclusive [activator, partial curve]",
Cc1cccc(NC(=O)COc2coc(CN3CCN(c4ccccc4)CC3)cc2=O)c1C,,inactive: -7.33%
O=C(NCCCn1cccn1)C1CCC(=O)N(CCc2ccccc2)C1 (configuration not stated),,inactive: -3.44%
N/C(=N\OC(=O)c1ccc(Cl)cc1Cl)c1cccnc1,active: 1.41 µM,
O=Cc1ccc(OCC(=O)Nc2ccccc2-c2ccccc2)cc1,,inactive: -10.1%
NS(=O)(=O)c1ccc(O)c(NC(=O)c2ccc([N+](=O)[O-])cc2)c1,"inconclusive [activator, partial curve]",
COc1ccc(C(=O)Nn2c(SCc3ccc([N+](=O)[O-])cc3)nc3ccccc3c2=O)cc1,active: 2.51 µM,
Cn1c(CCNC(=O)c2ccco2)nc2cc(NC(=O)c3ccco3)ccc21,"inconclusive [activator, partial curve]",
Cc1ccc(-n2cnc3sc(C)c(C)c3c2=O)cc1,"inconclusive [activator, partial curve]",
CCc1ccc(Nc2ncnc3nc[nH]c23)cc1,active: 2.24 µM,
O=C(CCc1ccccc1)Nc1ccc(N2CCCCC2)cc1,"inconclusive [activator, single point]",
O=C(N/N=C/c1cccs1)c1[nH]ncc1Br,active: 3.55 µM,
COc1cccc(C(=O)NCCn2ccc3ccccc32)c1,active: 2.82 µM,
Cn1cc(C(=O)Nc2ccccn2)c(=O)c2ccccc21,"inconclusive [activator, single point]",
Nc1ccc2nc(NC(=O)C3CCCCC3)sc2c1,"inconclusive [activator, partial curve]",
CCCCOc1cccc(C(=O)NNC(=S)NC2CCCCC2)c1,,inactive: 0.187%
Cc1ccc(NC(=O)NC(=O)c2ccccc2)cc1F,active: 0.562 µM,

SMILES,Potency,activation
c1ccc(-n2ncc3c(NCCN4CCCCC4)ncnc32)cc1,"inconclusive [activator, partial curve]",
O=C(N/N=C/c1ccc(OC(=O)c2cccs2)cc1)c1ccccn1,active: 2.51 µM,
COc1ccccc1N1CCN(/N=C/C(Cl)=C/c2ccccc2)CC1,active: 2.51 µM,
Cc1ccc(SCC(=O)c2ccc[nH]2)cc1,"inconclusive [activator, partial curve]",
O=C(/C(=C/c1cccc(Cl)c1)c1nc2ccccc2[nH]1)c1ccccc1,"inconclusive [activator, partial curve]",
Cn1c(=NC(=O)CS(=O)(=O)c2ccccc2)sc2ccccc21,"inconclusive [activator, single point]",
O=C(NCc1cccnc1)Nc1cccc(C(F)(F)F)c1,,inactive: 6.09%
Cc1cc(C)n(-c2ccc(C(=O)Nc3ccc4c(c3)OCO4)cc2)n1,"inconclusive [activator, single point]",
COc1ccc(-c2csc(NC(=O)CSc3nc(SC)ns3)n2)cc1,"inconclusive [activator, partial curve]",
Cc1cc(N2CCCCC2)nc2ccc(NC(=O)CCC(=O)NCCC(C)C)cc12,"inconclusive [activator, partial curve]",
O=C(NC(=S)Nc1ccc2c(c1)C(=O)c1ccccc1C2=O)c1ccc(F)cc1,"inconclusive [activator, partial curve]",
C/C=C(\C)c1nnc(NC(=O)c2ccco2)s1,"inconclusive [activator, partial curve]",
Nn1c(SCc2c(F)cccc2F)nnc1-c1ccccn1,active: 2 µM,
O=C(N=Nc1c(O)n(Cc2ccccc2)c2ccccc12)c1cc2ccccc2cc1O,"inconclusive [activator, single point]",
COc1ccc(-c2nc(C#N)c(NCCc3ccccc3)o2)cc1OC,"inconclusive [activator, partial curve]",
CCCCCCCSc1nnc(N)s1,,inactive: -5.84%
Cc1cc(C(=O)Nc2nc3c(s2)CCCC3)no1,active: 1.58 µM,
Cc1cc(C(=O)CSc2nncn2C)c(C)n1-c1ccccc1,active: 2 µM,
O=C(COc1ccc2ccccc2c1)N1CCCC1,"inconclusive [activator, single point]",
Cc1cc(N)n2ncc(-c3ccccc3)c2n1,active: 2.82 µM,
COc1cccc(/C=N/Nc2nc(-c3cccnc3)nc3ccccc23)c1,,inactive: 2.89%
CCc1nnc(NS(=O)(=O)c2ccc(NC(=O)Nc3ccc(OC)cc3)cc2)s1,,inactive: -5.16%
COc1cccc(-n2c(SCC(=O)Nc3nc4ccccc4s3)nc3ccccc3c2=O)c1,,inactive: 4.77%
O=C(Nc1cccc(NC(=O)c2ccccc2)n1)c1ccccc1,,inactive: -0.614%
CC(C)C(=O)Nc1ccccc1C(=O)N/N=C/c1ccc([N+](=O)[O-])cc1,,inactive: 2.74%
CCOc1cc(C2NN=C(c3ccccc3)S2)ccc1OCc1ccccc1Cl (configuration not stated),"inconclusive [activator, single point]",

SMILES,Potency,activation
CC(=O)NC(=S)Nc1ccc(NC(=O)c2cccs2)cc1,"inconclusive [activator, partial curve]",
CC(C)n1cnc2c(Nc3cccc(F)c3)nc(NCCO)nc21,"inconclusive [activator, single point]",
N#C/C(=C(/O)CN1CCCCC1)c1nc(-c2ccc(Cl)cc2)cs1,"inconclusive [activator, single point]",
Cc1[nH]n(C(N)=S)c(=O)c1N=Nc1cccc(Cl)c1,"inconclusive [activator, single point]",
COc1ccccc1CN1CC(C(=O)NCc2cc(F)ccc2C)CCC1=O (configuration not stated),"inconclusive [activator, single point]",
Cc1ccc(C)c(OCc2nc3ccccc3[nH]2)c1,"inconclusive [activator, single point]",
c1cn2c(NC3CCCC3)c(-c3ccc(N4CCOCC4)cc3)nc2cn1,"inconclusive [activator, partial curve]",
CCOCCOC(=O)COc1ccc2c(=O)c(Oc3ccc(OC)cc3)coc2c1,,inactive: -0.786%
C/C(CCC1CC(C)(C)OC1=O)=N\NC(N)=S (configuration not stated),"inconclusive [activator, single point]",
Cc1ccc(C(=O)Nc2ccsc2C(=O)O)cc1,active: 0.708 µM,
CCOC(=O)c1ccc(NC(=O)Cn2nnc3ccccc32)cc1,active: 3.55 µM,
CCOc1ccccc1C1N=C(c2ccc(OC)cc2)CC(c2ccccc2O)N1 (configuration not stated),"inconclusive [activator, single point]",
CCN(CC)S(=O)(=O)c1cc(NC(=O)c2cc(-c3ccccn3)nc3ccccc23)ccc1C,,inactive: -2.42%
O=C(Cc1cccc2ccccc12)N/N=C1\CCCc2ccccc21,,inactive: -1.06%
Clc1ccc(Cc2noc(-c3cccs3)n2)cc1,"inconclusive [activator, single point]",
O=C(O)c1cc(-c2ccc(-c3c(-c4ccc5c(c4)OCO5)noc3-c3ccsc3)cc2)nc2ccccc12,"inconclusive [activator, single point]",
O=c1c2ccccc2cnn1-c1ccc(Cl)cc1,active: 1.41 µM,
CCNC(=S)NNC(=O)c1cc(-c2ccc(OC)cc2)nc2ccccc12,"inconclusive [activator, full curve]",
Cc1ccsc1/C=N/Nc1ccc(F)cc1F,"inconclusive [activator, single point]",
CC(C)(C)c1ccc(C(=O)NNC(=O)Cc2cccc3ccccc23)cc1,,inactive: 0.472%
Cc1nc(-c2ccc(NC(=O)c3ccccc3Br)cc2)cs1,"inconclusive [activator, partial curve]",
CCOc1ccc(N=Nc2c(N)[nH][nH]c2=O)cc1,"inconclusive [activator, single point]",
COCc1nc2oc3ccccc3c(=O)c2cc1C(=O)OC,"inconclusive [activator, partial curve]",
CC(/C=N/NC(=O)c1cccs1)=C\c1ccccc1,active: 1 µM,
Cc1noc(C)c1C(=O)Nc1nc(-c2cccs2)cs1,"inconclusive [activator, single point]",
